Results published in the supplement of paper PMC12217912.
Some of the results follow. Sequences were assembled here from the parent chain. Inactive controls read about 0.05.

B1: TEV protease; numbered along this chain (parent)
chain: MGESLFKGPRDYNPISSSICHLTNESDGHTTSLYGIGFGPFIITNKHLFRRNNGTLVVQSLHGVFKVKDTTTLQQHLVDGRDMIIIRMPKDFPPFPQKLKFREPQREERICLVTTNFQTKSMSSMVSDTSCTFPSGDGIFWKHWIQTKDGQCGSPLVSTRDGFIVGIHSASNFTNTNNYFTSVPKNFMELLTNQEAQQWVSGWRLNADSVLWGGHKVFMVKPEEPFQPVKEATQL

Variants of: B1
Test: raw area under fraction-flipped curve 0-4 h after induction (AUC4h, not background-subtracted), DNA-recorder readout of cleavage of the substrate (dimensionless); higher = more cleavage of the substrate by the protease variant
Conditions: temperature: 34 °C; time window: 0-4 h after rhamnose induction
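Also: Bxb1 expression induced with 0.2% (w/v) L-rhamnose at OD600 near 0.5, cultures sampled hourly, flipped fraction per protease–substrate barcode pair counted by paired-end Illumina sequencing.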

Variant	area with substrate ECLYFQS	area with substrate EDLYFQS	area with substrate EELYFQS	area with substrate EFLYFQS	area with substrate EHLYFQS	area with substrate EILYFQS	area with substrate EKLYFQS	area with substrate ELLYFQS	area with substrate EMLYFQS	area with substrate EQLYFQS	area with substrate ESLYFQS	area with substrate EVLYFQS	area with substrate EWLYFQS	area with substrate EGLYFQS	area with substrate ERLYFQS	area with substrate EPLYFQS	area with substrate ETLYFQS	area with substrate EYLYFQS
F95V	0.0813	0.0868	0.0829	0.0845	0.0921	0.0753	0.0854	0.068	0.0913	0.0855	0.104	0.0757	0.0775	–	–	–	–	–
Q97S	0.0997	–	–	–	0.118	–	–	–	–	–	0.116	0.101	–	0.123	0.0991	–	–	–
K98E	0.112	–	0.153	0.135	0.11	0.105	–	0.0935	0.119	0.0965	0.0878	0.137	0.0972	0.0886	0.132	0.133	–	–
E107M	0.101	0.0798	0.0938	–	–	0.0772	0.126	0.0749	0.0688	0.122	0.0923	0.0755	–	–	0.0604	0.103	0.122	0.0987
E107N	0.0871	0.152	0.134	0.107	–	0.105	0.0748	–	0.0897	0.111	0.113	–	0.114	–	0.0919	–	0.118	0.108
E108I	0.0636	0.0742	0.0919	–	–	0.0708	0.0625	0.0423	0.0583	0.0797	0.0922	–	–	0.0557	0.0593	0.0707	–	0.0541
E108S	0.122	0.0722	–	0.0701	–	0.0618	–	0.0606	–	–	0.079	0.062	0.0737	–	0.0664	–	–	0.0681
E108V	0.1	0.069	0.0696	–	0.067	0.0592	0.063	0.0581	0.0621	0.0693	0.0647	0.0528	–	0.0616	0.0577	0.0675	–	0.0635
C111I	0.0957	0.142	0.128	–	–	0.0784	0.102	0.091	0.107	0.123	0.0738	–	0.0934	0.0839	–	0.109	0.106	–
V113A	0.0797	0.0802	0.107	0.0949	–	0.0914	0.103	0.0846	–	0.0952	0.0892	0.074	–	0.0981	0.0707	0.092	0.0704	0.135
T114Q	0.123	0.124	–	0.154	0.112	–	0.131	0.101	–	0.134	0.096	0.138	0.102	–	0.128	–	–	0.111
K120Q	0.0987	–	–	–	0.115	0.111	–	0.0656	0.112	–	0.0961	0.0636	0.0994	0.076	–	–	–	0
S121L	0.0905	0.12	–	0.137	–	0.0999	0.11	0.0866	0.116	0.0949	0.11	0.097	–	0.0901	0.102	0.124	0.101	–
M122H	0.089	0.102	–	–	0.112	0.0915	0.0977	0.084	–	–	0.0898	–	–	–	0.0195	–	–	–
M122L	0.106	–	0.136	–	0.0982	0.0912	–	–	0.0892	0.121	0.0945	0.0855	0.098	–	–	0.139	–	0.144
M122W	0.126	–	–	–	0.0817	0.102	–	–	0.115	0.112	0.103	0.052	0.108	0.0806	0.115	0.144	0.0808	–
S124M	0.106	0.13	0.122	–	–	0.0847	0.11	0.113	0.116	–	0.101	0.109	–	–	–	0.118	–	0.0872
S127H	0.104	0.142	0.123	–	0.12	0.0645	0.1	0.0969	–	0.125	0.114	0.115	–	0.0995	0.0851	0.113	0.104	0.15
S130N	0.076	–	–	0.102	–	0.0799	0.0954	–	0.131	0.115	0.094	0.0904	–	0.0994	0.102	0.13	–	–
C131S	0.109	–	0.152	–	–	0.126	–	–	–	–	–	0.094	–	–	–	–	–	–
T132R	0.0547	–	0.0371	–	–	–	–	–	0.0504	–	0.0286	–	0.0652	–	0.0496	0.0449	–	–
S135Y	0.0759	0.0757	0.104	–	0.0528	0.0509	0.0729	–	0.0573	0.0731	0.0674	0.0515	–	0.0545	0.0683	0.0588	–	–
G136M	0.0932	0.138	–	–	0.105	0.137	0.169	–	0.105	0.158	0.105	0.114	0.0895	–	–	–	0.116	0.0787
W141G	0.0622	0.0581	0.0777	–	0.0584	0.056	–	–	–	0.0441	0.0513	0.0629	0.0686	0.0495	0.055	0.0507	–	–
H143K	0.0583	0.0683	0.0712	–	0.0708	–	0.0496	0.054	–	0.0658	0.0487	0.0715	0.0602	–	0.058	–	0.0375	–
H143L	0.0602	0.0644	–	0.086	–	0.0363	–	0.0626	–	0.046	0.0668	0.0686	0.0526	0.0627	0.0755	0.0567	–	0.0644
H143W	0.0544	0.079	0.064	–	0.0507	0.0527	0.0532	0.0577	0.0527	–	0.0672	0.0528	0.0598	–	–	0.065	–	–
Q151I	0.0917	–	0.109	–	0.0951	0.0727	0.0947	–	0.102	0.0877	0.095	0.0675	0.0922	0.0833	–	0.09	0.106	0.0871
Q151L	0.0664	–	0.0984	–	0.121	0.0819	–	–	–	0.105	–	0.0859	–	0.0779	0.0793	–	–	–
